The RNAGym collection of RNA variant scans (doi:10.1101/gad.245936.114)
Variants at the floor of the assay are shown more often than the library holds them.

B1: tRNA (parent)
chain: CUCUCGGUAGCCAAGUUGGUUUAAGGCGCAAGACUUUAAUUUAUCACUACGAAAUCUUGAGAUCGGGCGUUCGACUCGCCCCCGGGAGAUUUUUUCCUCGAGCAA

Variants of: B1
Assay: nonsense suppression (GFP-seq) (ratio to wild type); higher = more function; SUP4oc tRNA, yeast GFP reporter sort-seq
Outline: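 Yeast carrying genome-integrated SUP4oc tRNA variants from a library with ~3% random mutations were grown in raffinose/galactose medium with 80 mg/L adenine. Each strain also carried a galactose-driven GFP ochre reporter and RFP. Cells were sorted into GFP/RFP bins, and each bin was Illumina-sequenced (phred ≥30). Nonsense suppression (GFPSEQ) is the bin median GFP/RFP, weighted by each variant's estimated cell share per bin, relative to wild-type SUP4oc; variants needed ≥100 reads and ≥30 cells.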

Variant	nonsense suppression
A9U G86A	0.0496
A9U G86U G88A	≤ 0.026
A9U U17C	0.128
A9U U17G C77A	≤ 0.026
A9U U20G A31C C79A	≤ 0.026
A9U U21C C34U U35A U71C G73A	≤ 0.026
A9U U21G U22C	≤ 0.026
A9U U22A A23U U63G A89C	≤ 0.026
A9U U35A	≤ 0.026
A9U U35A A60C G61U G73A	≤ 0.026
A9U U55C G59U G61C	≤ 0.026
A9U U57C U70C	≤ 0.026
A9U U57G	≤ 0.026
A9U U57G C77A G85A	≤ 0.026
A9U U57G G65A A74C	≤ 0.026
A9U U57G G65C	≤ 0.026
A9U U58C U76G	≤ 0.026
A9U U63A C82G	≤ 0.026
A9U U63C	0.0507
A9U U70A	≤ 0.026
A9U U70A A89C	≤ 0.026

Variant	nonsense suppression
A9U U70C	≤ 0.026
A9U U76G G85C	≤ 0.026
G10A A13C	0.0618
G10A A13U G65U G73U	≤ 0.026
G10A A14C A74C	≤ 0.026
G10A A14C C82A	≤ 0.026
G10A A14C G18U U21A G84A	≤ 0.026
G10A A14G A31U G66C	≤ 0.026
G10A A14U A24U U35C	≤ 0.026
G10A A14U A87U	≤ 0.026
G10A A23C	≤ 0.026
G10A A23G A24U	≤ 0.026
G10A A23U C56U C68U C81A	≤ 0.026
G10A A24C A74C	≤ 0.026
G10A A24U G73A	≤ 0.026
G10A A30C C34A A89G	≤ 0.026
G10A A30C C81A	≤ 0.026
G10A A31U	≤ 0.026
G10A A33U U70A	≤ 0.026
G10A A60C	≤ 0.026
G10A A60G C82G	≤ 0.026

Variant	nonsense suppression
G10A A62C U71C C83G	≤ 0.026
G10A A62G C64A	≤ 0.026
G10A A74C	≤ 0.026
G10A A89C	≤ 0.026
G10A C11G U76G	≤ 0.026
G10A C11U	≤ 0.026
G10A C12A A23C C29U G69C	≤ 0.026
G10A C12G A74G	≤ 0.026
G10A C12U A13U C75A	≤ 0.026
G10A C12U G18U	≤ 0.026
G10A C27G C34U	≤ 0.026
G10A C56A U57C G86A	≤ 0.026
G10A C80G A89C	≤ 0.026
G10A C81A C83G	≤ 0.026
G10A G15U	≤ 0.026
G10A G15U A89G	≤ 0.026
G10A G18U A74G	≤ 0.026
G10A G61A	≤ 0.026
G10A G61C	≤ 0.026
G10A G61C U70C U71C G85A	≤ 0.026
G10A G65A	≤ 0.026

Variant	nonsense suppression
G10A G65C G66C G78A	≤ 0.026
G10A G69A	≤ 0.026
G10A G73C	≤ 0.026
G10A G78A	0.0314
G10A G78U	0.0324
G10A G84A A89C	≤ 0.026
G10A G84C	≤ 0.026
G10A G88A A89G	≤ 0.026
G10A G88C	≤ 0.026
G10A U16C C79G	≤ 0.026
G10A U16G A87G	≤ 0.026
G10A U16G U76C	≤ 0.026
G10A U20G A62C C82A	≤ 0.026
G10A U21G G59U G61U A62C	≤ 0.026
G10A U21G G67C C79A	≤ 0.026
G10A U22A A31G U70A	≤ 0.026
G10A U22C C79A	≤ 0.026
G10A U22G G25A G61A G66C	≤ 0.026
G10A U35A	≤ 0.026
G10A U35A A54C U76G	≤ 0.026
G10A U35C	≤ 0.026
